From the supplement of paper PMC12217912
The other results are listed elsewhere or left out. Sequences were assembled here from the parent chain. Values near 0.05 are background.

B1: TEV protease; numbered along this chain (parent)
chain: MGESLFKGPRDYNPISSSICHLTNESDGHTTSLYGIGFGPFIITNKHLFRRNNGTLVVQSLHGVFKVKDTTTLQQHLVDGRDMIIIRMPKDFPPFPQKLKFREPQREERICLVTTNFQTKSMSSMVSDTSCTFPSGDGIFWKHWIQTKDGQCGSPLVSTRDGFIVGIHSASNFTNTNNYFTSVPKNFMELLTNQEAQQWVSGWRLNADSVLWGGHKVFMVKPEEPFQPVKEATQL

Variants of: B1
Assay: raw area under fraction-flipped curve 0-4 h after induction (AUC4h, not background-subtracted), DNA-recorder readout of cleavage of the substrate (dimensionless); higher = more cleavage of the substrate by the protease variant
Settings: temperature: 34 °C; time window: 0-4 h after rhamnose induction
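Further: Bxb1 expression induced with 0.2% (w/v) L-rhamnose at OD600 near 0.5, cultures sampled hourly, flipped fraction per protease–substrate barcode pair counted by paired-end Illumina sequencing.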

With MGESLFKGPRDYNPISSSICHLTNESDGHTTSLYGIGFGPFIITNKHLFRRNNGTLVVQSLHGVFKVKDTTTLQQHLVDGRDMIIIRMPKDFPPFPQKLKFREPQREERICLVTTNFQTKSMSSMVSDTSCTFPSGDGIFWKHWIQTKDGQCGSPLVSTRDGFIVGIHSASNVTNTNNYFTSVPKNFMELLTNQEAQQWVSGWRLNADSVLWGGHKVFMVKPEEPFQPVKEATQL [F173V] as the variant, how does the “area with substrate ENLYEQS” value read?
Its value is 0.0621.

And the “area with substrate ENLYGQS” value?
The value was 0.0582.

What about the “area with substrate ENLYHQS” value of the same variant?
The value was 0.0566.

And the “area with substrate ENLYIQS” value?
The value was 0.0993.

And the “area with substrate ENLYKQS” value?
Its value is 0.0949.

What about the “area with substrate ENLYMQS” value of the same variant?
Its value is 0.0704.

What about the “area with substrate ENLYNQS” value of the same variant?
The value was 0.0895.

And the “area with substrate ENLYPQS” value?
The value was 0.0778.

What about the “area with substrate ENLYQQS” value of the same variant?
The value was 0.0633.

And the “area with substrate ENLYRQS” value?
The value was 0.0669.

What about the “area with substrate ENLYTQS” value of the same variant?
The value was 0.064.

What about the “area with substrate ENLYVQS” value of the same variant?
The value was 0.1.

And the “area with substrate ENLYWQS” value?
The value was 0.0663.

What does the source list for MGESLFKGPRDYNPISSSICHLTNESDGHTTSLYGIGFGPFIITNKHLFRRNNGTLVVQSLHGVFKVKDTTTLQQHLVDGRDMIIIRMPKDFPPFPQKLKFREPQREERICLVTTNFQTKSMSSMVSDTSCTFPSGDGIFWKHWIQTKDGQCGSPLVSTRDGFIVGIHSASNFTNTNNYFTSVPKNFMEILTNQEAQQWVSGWRLNADSVLWGGHKVFMVKPEEPFQPVKEATQL [L190I]?
area with substrate ENLYEQS: 0.0699; area with substrate ENLYKQS: 0.0984; area with substrate ENLYMQS: 0.0777; area with substrate ENLYNQS: 0.065; area with substrate ENLYPQS: 0.0753; area with substrate ENLYQQS: 0.0503; area with substrate ENLYSQS: 0.0758; area with substrate ENLYTQS: 0.0896

With MGESLFKGPRDYNPISSSICHLTNESDGHTTSLYGIGFGPFIITNKHLFRRNNGTLVVQSLHGVFKVKDTTTLQQHLVDGRDMIIIRMPKDFPPFPQKLKFREPQREERICLVTTNFQTKSMSSMVSDTSCTFPSGDGIFWKHWIQTKDGQCGSPLVSTRDGFIVGIHSASNFTNTNNYFTSVPKNFMELLTNQEAQQWVSGWRLNADSVLWGGHKVFMVKPEEPFQPVREATQL [K230R] as the variant, how does the “area with substrate ENLYEQS” value read?
Its value is 0.0746.

And the “area with substrate ENLYHQS” value?
The value was 0.0643.

And the “area with substrate ENLYKQS” value?
The value was 0.0517.

What about the “area with substrate ENLYMQS” value of the same variant?
The value was 0.0931.

What about the “area with substrate ENLYNQS” value of the same variant?
Its value is 0.0942.

What about the “area with substrate ENLYRQS” value of the same variant?
The value was 0.0603.

What about the “area with substrate ENLYVQS” value of the same variant?
The value was 0.117.

Which results are given for MGESLFKGPRDYNPISSSICHLTNESDGHTTSLYGIGFGPFIITNKHLFRRNNGTLVVQSLHGVFKVKDTTTLQQHLVDGRDMIIIRMPKDFGPFPQKLKFREPQREERICLVTTNFQTKSMSSMVSDTSCTFPSGDGIFWKHWIQTKDGQCGSPLVSTRDGFIVGIHSASNFTNTNNYFTSVPKNFMELLTNQEAQQWVSGWRLNADSVLWGGHKVFMVKPEEPFQPVKEATQL [P93G]?
area with substrate ENLYEQS: 0.0654; area with substrate ENLYGQS: 0.059; area with substrate ENLYHQS: 0.0624; area with substrate ENLYMQS: 0.084; area with substrate ENLYNQS: 0.0691; area with substrate ENLYPQS: 0.0781; area with substrate ENLYSQS: 0.0779; area with substrate ENLYTQS: 0.0755; area with substrate ENLYVQS: 0.0499; area with substrate ENLYWQS: 0.0812; area with substrate ENLYYQS: 0.056

Which “area with substrate ENLYEQS” value does the source give for MGESLFKGPRDYNPISSSICHLTNESDGHTTSLYGIGFGPFIITNKHLFRRNNGTLVVQSLHGVFKVKDTTTLQQHLVDGRDMIIIRMPEDFPPFPQKLKFREPQREERICLVTTNFQTKSMSSMVSDTSCTFPSGDGIFWKHWIQTKDGQCGSPLVSTRDGFIVGIHSASNFTNTNNYFTSVPKNFMELLTNQEAQQWVSGWRLNADSVLWGGHKVFMVKPEEPFQPVKEATQL [K90E] here?
The value was 0.0588.

And the “area with substrate ENLYGQS” value?
The value was 0.0571.

What about the “area with substrate ENLYHQS” value of the same variant?
Its value is 0.0205.

What about the “area with substrate ENLYKQS” value of the same variant?
The value was 0.0889.

And the “area with substrate ENLYMQS” value?
Its value is 0.0753.

What about the “area with substrate ENLYNQS” value of the same variant?
The value was 0.0585.

What about the “area with substrate ENLYPQS” value of the same variant?
The value was 0.0697.

And the “area with substrate ENLYRQS” value?
The value was 0.0618.

What about the “area with substrate ENLYSQS” value of the same variant?
The value was 0.0802.

What about the “area with substrate ENLYWQS” value of the same variant?
The value was 0.0731.

Which “area with substrate ENLYEQS” value does the source give for MGESLLKGPRDYNPISSSICHLTNESDGHTTSLYGIGFGPFIITNKHLFRRNNGTLVVQSLHGVFKVKDTTTLQQHLVDGRDMIIIRMPKDFPPFPQKLKFREPQREERICLVTTNFQTKSMSSMVSDTSCTFPSGDGIFWKHWIQTKDGQCGSPLVSTRDGFIVGIHSASNFTNTNNYFTSVPKNFMELLTNQEAQQWVSGWRLNADSVLWGGHKVFMVKPEEPFQPVKEATQL [F6L] here?
Its value is 0.0599.

What about the “area with substrate ENLYHQS” value of the same variant?
The value was 0.052.

What about the “area with substrate ENLYLQS” value of the same variant?
The value was 0.0594.

And the “area with substrate ENLYMQS” value?
The value was 0.0656.

What about the “area with substrate ENLYRQS” value of the same variant?
Its value is 0.0552.

What about the “area with substrate ENLYSQS” value of the same variant?
The value was 0.0534.

And the “area with substrate ENLYTQS” value?
Its value is 0.0759.

And the “area with substrate ENLYYQS” value?
The value was 0.0645.

Which results are given for MGESLFFGPRDYNPISSSICHLTNESDGHTTSLYGIGFGPFIITNKHLFRRNNGTLVVQSLHGVFKVKDTTTLQQHLVDGRDMIIIRMPKDFPPFPQKLKFREPQREERICLVTTNFQTKSMSSMVSDTSCTFPSGDGIFWKHWIQTKDGQCGSPLVSTRDGFIVGIHSASNFTNTNNYFTSVPKNFMELLTNQEAQQWVSGWRLNADSVLWGGHKVFMVKPEEPFQPVKEATQL [K7F]?
area with substrate ENLYEQS: 0.0869; area with substrate ENLYGQS: 0.062; area with substrate ENLYHQS: 0.0682; area with substrate ENLYKQS: 0.0443; area with substrate ENLYMQS: 0.0778; area with substrate ENLYSQS: 0.0759; area with substrate ENLYYQS: 0.0704

Which “area with substrate ENLYEQS” value does the source give for MGESLFKGPRDYNPISSSICHLTNESDGHTTSLYGIGFGPFIITNKHLFRRNNGTLVVQSLHGVFKVKDTTTLQQHLVDGRDMIIIRMPKDFPPFPQKLKFREPQREERICLVTTNFQTKSMSSMVSDTSCTFPSGDGIFWKHWIQTKDGQCGSPLVSTRDGFIVGIHSASNFTNTNNYFTSVPKNFMEVLTNQEAQQWVSGWRLNADSVLWGGHKVFMVKPEEPFQPVKEATQL [L190V] here?
The value was 0.0752.

What about the “area with substrate ENLYHQS” value of the same variant?
The value was 0.117.

What about the “area with substrate ENLYIQS” value of the same variant?
The value was 0.124.

And the “area with substrate ENLYKQS” value?
Its value is 0.0671.

What about the “area with substrate ENLYLQS” value of the same variant?
The value was 0.134.

And the “area with substrate ENLYNQS” value?
The value was 0.0588.

What about the “area with substrate ENLYSQS” value of the same variant?
The value was 0.0753.

And the “area with substrate ENLYTQS” value?
The value was 0.094.

And the “area with substrate ENLYVQS” value?
Its value is 0.123.

For MGESLFKGPRDYNPISSSICHLTNESDGHTTSLYGIGFGPFIITNKHLFRRNNGTLVVQSLHGVFKVKDTTTLQQHLVDGRDMIIIRMPKDFPPFPQKLKFREPQREERICLVTTNFQTKSMSSMVSDTSCTFPSGDGIFWKHWIQTKDGQCGSPLVSTRDGFIVGIHSASNFTNTNNYFTSVPKNFMELLTNQEAQQAVSGWRLNADSVLWGGHKVFMVKPEEPFQPVKEATQL [W199A], which “area with substrate ENLYEQS” value is on record?
Its value is 0.0556.

What about the “area with substrate ENLYIQS” value of the same variant?
The value was 0.0642.

What about the “area with substrate ENLYKQS” value of the same variant?
Its value is 0.0691.

What about the “area with substrate ENLYMQS” value of the same variant?
The value was 0.0647.

What about the “area with substrate ENLYPQS” value of the same variant?
Its value is 0.0702.

What about the “area with substrate ENLYQQS” value of the same variant?
Its value is 0.0609.

What about the “area with substrate ENLYRQS” value of the same variant?
Its value is 0.0445.

And the “area with substrate ENLYWQS” value?
Its value is 0.0616.

For MGESLFKGPRDYNPISSSICHLTNESDGHTTSLYGIGFGPFIITNKHLFRRNNGTLVVQSLHGVFKVKDTTTLQQHLVDGRDMIIIRMDKDFPPFPQKLKFREPQREERICLVTTNFQTKSMSSMVSDTSCTFPSGDGIFWKHWIQTKDGQCGSPLVSTRDGFIVGIHSASNFTNTNNYFTSVPKNFMELLTNQEAQQWVSGWRLNADSVLWGGHKVFMVKPEEPFQPVKEATQL [P89D], which “area with substrate ENLYEQS” value is on record?
The value was 0.0584.

Which results are given for MGESLFKGPRDYNPISSSICHLTNESDGHTTSLYGIGFGPFIITNKHLFRRNNGTLVVQSLHGVFKVKDTTTLQQHLVDGRDMIIIRMPKDFPPFPQKLKFREPQREERICLVTTNFQTKSMSSMVSDTSCTFPSGDGIFWKHWIQTKDGQCGSPLVTTRDGFIVGIHSASNFTNTNNYFTSVPKNFMELLTNQEAQQWVSGWRLNADSVLWGGHKVFMVKPEEPFQPVKEATQL [S158T]?
area with substrate ENLYEQS: 0.0473; area with substrate ENLYGQS: 0.045; area with substrate ENLYMQS: 0.0736; area with substrate ENLYPQS: 0.0625
